Measurements published in the RNAGym collection of RNA variant scans (doi:10.7554/elife.90254).
Read counts are not given, so values of variants with three or more changes are uncertain.

B1: OR4K15 (parent)
chain: GUUAACGGUCAUAGGCCAUGGAAACUAGGAGCACCAUUUCGCUGCCAGUGAAGAAAUGAACAAAGAAAAUCUGGGCCAGGCAGGCAUCAAAAGAAAUAGUCUUGCGCUCAACCAGAAAGUCUGUAAUCAUUUUAAGGGUA

Variants of: B1
Assay: self-cleavage, relative activity (ratio to wild type); higher = more cleavage; in vitro, sequencing; the parent is a self-cleaving ribozyme

| Variant | self-cleavage |
| --- | --- |
| GUUAACGGUCAUAGGCCAUGGAGACUAGGAGCACCAUUUCGCUGCCAGUGAAGAAAUGAACAAAGAAAAUCUGGGCCAGGCAGGCAUCAAGAGAAAUAGUCUUGCGCUCGACCAGAAAGUCUGUAAUCAUUUUAAGAGUA [A23G A91G A110G G137A] | 0.18 |
| GUUAACGGUCAUAGGCCAUGGAGACUAGGAGCACCAUUUCGCUGCCAGUGAAGAAAUGAACAAAGAAAAUCUGGGCCAGGCAGGCAUCAAAGGAAAUAGUCUUGCGCCCAACCAGAAAGACUGUAAUCAUUUUAAGGGUA [A23G A92G U108C U120A] | 0.01 |
| GUUAACGGUCAUAGGCCAUGGAGACUAGGAGCACCAUUUCGCUGCCAGUGAAGAAAUGAACAAAGAAAAUCUGGGCCAGGCAGGCAUCAAAAGUAAUAGUCUUGCGCUCAACCAGAAAGCCUGUAGUCAUUUUAAGGGUA [A23G A94U U120C A126G] | 0.93 |
| GUUAACGGUCAUAGGCCAUGGAGACUAGGAGCACCAUUUCGCUGCCAGUGAAGAAAUGAACAAAGAAAAUCUGGGCCAGGCAGGCAUCAAAAGAGAUAGUCUUGCGCUCAACCAGAAAGUCUGUGAUCAUUUCAAGGGUA [A23G A95G A125G U133C] | 1.07 |
| GUUAACGGUCAUAGGCCAUGGAGACUAGGAGCACCAUUUCGCUGCCAGUGAAGAAAUGAACAAAGAAAAUCUGGGCCAGGCAGGCAUCAAAAGAGAUAGUCUUGCGCUCAACCAGAAAGUCUGUAAUCAUUUUAGGGGUA [A23G A95G A135G] | 2.26 |
| GUUAACGGUCAUAGGCCAUGGAGACUAGGAGCACCAUUUCGCUGCCAGUGAAGAAAUGAACAAAGAAAAUCUGGGCCAGGCAGGCAUCAAAAGAAGUAGUCUUGCGCUCAACCAGAAAGUCCGUAAUCAUUUUAAGGGUA [A23G A96G U122C] | 0 |
| GUUAACGGUCAUAGGCCAUGGAGACUAGGAGCACCAUUUCGCUGCCAGUGAAGAAAUGAACAAAGAAAAUCUGGGCCAGGCAGGCAUCAAAAGAAAUGGUCUUGCGCUCAACCAGAAGGUCUGUAAUCAUCUUAAGGGUA [A23G A98G A118G U131C] | 0.26 |
| GUUAACGGUCAUAGGCCAUGGAGACUAGGAGCACCAUUUCGCUGCCAGUGAAGAAAUGAACAAAGAAAAUCUGGGCCAGGCAGGCAUCAAAAGAAAUAGUCUUGCGCUCAGCCAGAAGGUCUGUAAUCAUUUUAAGGGUA [A23G A111G A118G] | 0 |
| GUUAACGGUCAUAGGCCAUGGAGACUAGGAGCACCAUUUCGCUGCCAGUGAAGAAAUGAACAAAGAAAAUCUGGGCCAGGCAGGCAUCAAAAGAAAUAGUCUUGCGCUCAGCCAGAAAGUCUGUAAUCACUUUAAGGGUA [A23G A111G U130C] | 0.03 |
| GUUAACGGUCAUAGGCCAUGGAGACUAGGAGCACCAUUUCGCUGCCAGUGAAGAAAUGAACAAAGAAAAUCUGGGCCAGGCAGGCAUCAAAAGAAAUAGUCUUGCGCUCAACCGGAAAGUCUGUAAUCAUUUUAAGGAUA [A23G A114G G138A] | 0.36 |
| GUUAACGGUCAUAGGCCAUGGAGACUAGGAGCACCAUUUCGCUGCCAGUGAAGAAAUGAACAAAGAAAAUCUGGGCCAGGCAGGCAUCAAAAGAAAUAGUCUUGCGCUCAACCGGAAAGUCUGCAAUCAUUUUAAGGGUA [A23G A114G U124C] | 0.18 |
| GUUAACGGUCAUAGGCCAUGGAGACUAGGAGCACCAUUUCGCUGCCAGUGAAGAAAUGAACAAAGAAAAUCUGGGCCAGGCAGGCAUCAAAAGAAAUAGUCUUGCGCUCAACCAGAGAGUCUGUAAUCAUUCUAAGGGUA [A23G A117G U132C] | 1.05 |
| GUUAACGGUCAUAGGCCAUGGAGACUAGGAGCACCAUUUCGCUGCCAGUGAAGAAAUGAACAAAGAAAAUCUGGGCCAGGCAGGCAUCAAAAGAAAUAGUCUUGCGCUCAACCAGAAAGUCUGUAGCCAUUUUAAGGGUA [A23G A126G U127C] | 0.55 |
| GUUAACGGUCAUAGGCCAUGGAGACUAGGAGCACCAUUUCGCUGCCAGUGAAGAAAUGAACAAAGAAAAUCUGGGCCAGGCAGGCAUCAAAAGAAAUAGUCUUGCGCUCAACCAGAAAGUCUGUAGUCAUCUUAAGGGUA [A23G A126G U131C] | 0.35 |
| GUUAACGGUCAUAGGCCAUGGAGACUAGGAGAACCAUUUCGCUGCCAGCGAAGAAAUGAACAAAGAAAAUCUGGGCCAGGCAGGCAUCAAAAGAAAUGGGCUUGCGCACAACCAGAAAGUCUGUAAUCAUUUUAAGGGUG [A23G C32A U49C A98G U100G U108A A140G] | 0.02 |
| GUUAACGGUCAUAGGCCAUGGAGACUAGGAGUACCAUUUCGCUGCCAGUGAAGAUAUGAACAAAGAAAAUCUGGGCCAGGCAGGCAUCAAAAGAAAUAGUCUUGCGCUCAACCAGAAAGUCUGUAAUCAUUUUAAGGGCA [A23G C32U A55U U139C] | 1.36 |
| GUUAACGGUCAUAGGCCAUGGAGACUAGGAGCACUAUUUCGCUGCCAGUGAAGAAAUGAACGAAGAAAAUCUGGGCCAGGCAGGCAUCAAAAGAAAUAGUCUUGCGCUCAACCAGAAAGUCUGUAAUCAUUUUAAGGGUA [A23G C35U A62G] | 1.18 |
| GUUAACGGUCAUAGGCCAUGGAGACUAGGAGCACCAUUUAGCUGCCAGUGAAGAGUUGAACAAAGAAAAUCUGGGCCAGGCAGGCAUCAAAAGAAAUAGUCUUGCGCUCAACCAGAAAGUCUGUAAUCAUUUUAAGGGUG [A23G C40A A55G A56U A140G] | 0.6 |
| GUUAACGGUCAUAGGCCAUGGAGACUAGGAGCACCAUUUCGCUGCCAGUGAAGAAAUGAACAAAGAAAAUCUGGGACGGGCAGGCAUCAAAAGAAAUAGCCUUGCGCUCAACCAGAAAGUCUGUAAUCAUUUUAAGGGUA [A23G C76A A78G U100C] | 0.08 |
| GUUAACGGUCAUAGGCCAUGGAGACUAGGAGCACCAUUUCGCUGCCAGUGAAGAAAUGAACAAAGAAAAUCUGGGCUAGGCAGGCAUCAAAGGAAAUAGUCUUGCGCUCAACCAGAAAGUCUGUAAUCAUUUUAAGGGUA [A23G C77U A92G] | 1.89 |
| GUUAACGGUCAUAGGCCAUGGAGACUAGGAGCACCAUUUCGCUGCCAGUGAAGAAAUGAACAAAGAAAAUCUGGGCCAGGCAGGUAUCAAAAGACAUAGUCUUGCGCUCAACCAGAAAGUCUGUAAUCAUUUUAAGGGUA [A23G C85U A95C] | 0.75 |
